Assay results: article PMC4336329 (PLoS ONE, 2015)
Among all 310,000 compounds or so, about 2,200 (0.71%) showed an effect of 50% or more. Effects have a minus sign here. The list shows a part of the results.

biological target: human ether-à-go-go-related gene (hERG) potassium channel (human, UniProt Q12809); experiment: primary screen, population patch clamp on CHO cells stably expressing hERG
Sequence (Q12809 whole entry, looked up): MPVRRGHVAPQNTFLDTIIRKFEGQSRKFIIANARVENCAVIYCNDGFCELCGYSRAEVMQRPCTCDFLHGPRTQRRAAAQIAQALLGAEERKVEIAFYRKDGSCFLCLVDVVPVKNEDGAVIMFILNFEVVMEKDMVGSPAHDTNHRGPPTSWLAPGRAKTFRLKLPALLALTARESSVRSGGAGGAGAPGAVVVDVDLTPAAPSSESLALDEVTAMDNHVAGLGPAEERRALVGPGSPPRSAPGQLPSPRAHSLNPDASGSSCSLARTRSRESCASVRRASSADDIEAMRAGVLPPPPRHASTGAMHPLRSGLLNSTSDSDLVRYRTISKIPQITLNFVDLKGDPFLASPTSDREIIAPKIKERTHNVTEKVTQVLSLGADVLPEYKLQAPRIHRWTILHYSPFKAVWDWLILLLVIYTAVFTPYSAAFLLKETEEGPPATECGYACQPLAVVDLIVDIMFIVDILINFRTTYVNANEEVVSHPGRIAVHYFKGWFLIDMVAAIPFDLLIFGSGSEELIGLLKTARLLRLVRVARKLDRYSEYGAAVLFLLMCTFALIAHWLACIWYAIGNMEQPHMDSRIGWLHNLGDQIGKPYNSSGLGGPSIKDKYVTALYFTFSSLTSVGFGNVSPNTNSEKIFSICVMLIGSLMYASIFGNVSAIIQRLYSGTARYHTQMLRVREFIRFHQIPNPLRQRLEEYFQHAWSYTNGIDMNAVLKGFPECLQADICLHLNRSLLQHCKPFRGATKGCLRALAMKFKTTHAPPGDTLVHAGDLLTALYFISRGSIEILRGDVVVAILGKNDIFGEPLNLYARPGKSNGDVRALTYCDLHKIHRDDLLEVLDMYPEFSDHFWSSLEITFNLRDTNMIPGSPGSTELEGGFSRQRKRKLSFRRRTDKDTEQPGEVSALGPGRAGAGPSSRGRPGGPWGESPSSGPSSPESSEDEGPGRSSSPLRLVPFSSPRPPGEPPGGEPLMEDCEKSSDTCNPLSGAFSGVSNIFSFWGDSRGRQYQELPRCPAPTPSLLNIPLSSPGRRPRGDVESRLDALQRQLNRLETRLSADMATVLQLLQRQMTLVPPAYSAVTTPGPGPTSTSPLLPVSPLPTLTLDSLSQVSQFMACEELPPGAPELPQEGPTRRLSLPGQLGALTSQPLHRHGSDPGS

Row | SMILES | hERG current change (%, negative = inhibition) at 1uM
1 | O=C(O)CCCSc1nccn1-c1ccccc1 | 16%
2 | CN1CCN(C(=O)c2ccc3c(c2)N(Cc2ccccc2)CCS3)CC1 | 0.919%
3 | O=C(NCc1ccc(Cl)cc1)N1CCc2ccccc2C1 | 15.2%
4 | O=C(NCn1ccc(=O)[nH]c1=S)c1ccccc1 | 13.3%
5 | Cc1ccc(S(=O)(=O)N(C)CC(=O)NCCCn2ccnc2)cc1 | 22.1%
6 | CN(Cc1ccccc1)S(=O)(=O)c1ccc(Cl)c(C(=O)NCCc2ccccn2)c1 | -12.4%
7 | O=C(CSc1ccccc1)Nc1ccc(N2CCOCC2)cc1 | 10.6%
8 | COC(=O)c1cc(S(=O)(=O)NCC2CCN(CCc3cccs3)CC2)cn1C | -6.07%
9 | O=C(CN1C(=O)NC2(CCCCC2)C1=O)Nc1cccc2ncccc12 | 8.01%
10 | COc1ccccc1N1CCN(C(=O)CSc2nnc(NC(=O)c3ccco3)s2)CC1 | 14.1%
11 | Cc1ccc2nc(SCC(=O)Nc3c(C)n(C)n(-c4ccccc4)c3=O)[nH]c2c1 | 4.89%
12 | COCC(=O)Nc1nnc(SCC(=O)N2CCCCC2)s1 | 17.4%
13 | CCN1C(=O)NC(=O)/C(=C\c2ccc(N3CCOCC3)cc2OC)C1=O | 12.2%
14 | Cc1ccc(C(=O)c2ccc(N3CCN(C)CC3)c([N+](=O)[O-])c2)cc1 | -4.68%
15 | CCn1c(SCC(=O)NC2(C#N)CCCCC2)nc2ccccc2c1=O | 7.2%
16 | O=C(CCCOc1cccc(Br)c1)NCCOc1ccccc1 | 5.62%
17 | O=C(NC(=O)N1CCCCC1)c1ccc(Cl)cc1 | 16.9%
18 | COc1ccc2oc(C(=O)N3CCN(C(=O)c4ccco4)CC3)c(C)c2c1 | 4.58%
19 | CC(=O)NC(c1ccc(C)cc1)c1cc([N+](=O)[O-])c2cccnc2c1O (stereo not shown) | 6.54%
20 | Cc1ccc(NC(=O)CN(C)C(=O)c2cc(C)on2)cc1 | 4.64%

Row | SMILES | hERG current change (%, negative = inhibition) at 1uM
21 | N#Cc1nc(-c2cccc(Cl)c2)oc1N1CCC(C(N)=O)CC1 | 7.15%
22 | C=CCN1CCN(C(CC(C)C)c2nnnn2CCOC)CC1.Cl (stereo not shown) | 10.8%
23 | COCCn1ccc(O)c(Cc2ccc(Cl)cc2)c1=O | 3.77%
24 | Cc1cc(/C=C2\SC(=S)NC2=O)c(C)n1-c1ccccc1 | 12.5%
25 | CCOc1cccc(/C=N/NC(=O)CC2C(=O)NN=C2C)c1O (stereo not shown) | 7.16%
26 | CCOC(=O)c1nc(Nc2ccc(C(=O)O)cc2)c2ccccc2n1.Cl | 11.2%
27 | CCOC(=O)N1CCC(NC(=O)CCC(=O)N2CC(C)Oc3ccccc32)CC1 (stereo not shown) | 15.4%
28 | COc1ccc(OC)c(C(=O)CSc2nnc(-c3cccs3)n2C)c1 | 16.3%
29 | CN1CCN(CCCn2cnc3c(=O)oc4ccccc4c32)CC1 | 10.5%
30 | Cc1cc(C(=O)COC(=O)c2ccc(N)c([N+](=O)[O-])c2)c(C)n1-c1ccc2c(c1)OCO2 | 10.6%
31 | COc1ccc(CSc2nnc(C)n2N)cc1Br | 10.5%
32 | CCC(C)n1c(-c2cccs2)nc2nc3ccccc3nc21 (stereo not shown) | 4.84%
33 | Cc1ccccc1C(=O)NNC(=O)c1ccncc1 | 11.3%
34 | CC(C)c1ccc(CNn2cnnc2)cc1 | 8.36%
35 | Cc1ccc(-c2csc(/C(C#N)=C(\O)CN3CCN(C(=O)c4ccco4)CC3)n2)cc1 | 5.32%
36 | COc1ccccc1-c1nnc(SC2CCc3ccccc3NC2=O)s1 (stereo not shown) | 7.16%
37 | Cc1ccc(NC(=S)N2CCN(c3ccccc3F)CC2)c(C)c1 | 10.7%
38 | Cc1c(N=Nc2c(O)n(Cc3ccccc3)c(=O)[nH]c2=O)c(=O)n(-c2ccccc2)n1C | 2.16%
39 | O=C(NCC(c1ccco1)N1CCc2ccccc21)c1ccccc1Cl (stereo not shown) | -25.9%
40 | Cc1ccc(C)c(OCC(=O)OCC(=O)Nc2c(C)nn(-c3ccccc3)c2C)c1 | 7.06%

Row | SMILES | hERG current change (%, negative = inhibition) at 1uM
41 | COc1ccc(C2C=C(c3ccccc3)Nc3ncnn32)cc1 (stereo not shown) | 2.73%
42 | COc1ccc(NC(=O)Nc2cccc([N+](=O)[O-])c2)cc1Cl | -0.718%
43 | O=C(NCC1CCCO1)c1ccc2c(c1)N(Cc1ccccc1)C(=O)CS2 (stereo not shown) | 9.73%
44 | Cc1ccc(OC(F)F)c(NC(=O)Nc2cccc(C(F)(F)F)c2)c1 | -6.24%
45 | Cn1cc(CCNC(=O)CC2C(=O)NCCN2Cc2cccc(Oc3ccccc3)c2)cn1 (stereo not shown) | 9.15%
46 | COc1cccc(C(=O)N(Cc2ccc3c(c2)OCO3)Cc2nc3ccccc3c(=O)[nH]2)c1 | 7.79%
47 | COc1ccc(C)cc1NC(=O)c1ccc(NC(=O)CC2SC(N3CCCC3)=NC2=O)cc1 (stereo not shown) | 12.5%
48 | CCOc1ccc2[nH]c(C)c(CN(C)C)c(=O)c2c1 | 16.9%
49 | CC1CCN(CCCNC(=O)c2cc3c(=O)n(C)c4ccccc4c3n2C)CC1 | -1.66%
50 | CCOc1ccc(C)cc1S(=O)(=O)n1ccc(C)n1 | 9.83%
51 | COc1cccc(/C=N/Nc2nc3ccccc3n3cnnc23)c1O | 10.2%
52 | COc1cccc(CNC(=O)CCNC(=O)c2ccc(Br)o2)c1 | 16.7%
53 | COC(=O)C1=C(NC(=O)c2cccc(OC)c2)CCS1 | 14.3%
54 | CCN1C(=O)CC(NCc2ccc3c(c2)OCO3)C1=O (stereo not shown) | -4.21%
55 | C=CCN(C(=O)c1csnn1)C(C(=O)NC1CCCCC1)c1ccc(Cl)cc1 (stereo not shown) | 7.27%
56 | CCOC(=O)N1CCC(NC(=O)c2cc3c(-c4ccc(Cl)cc4)nn(C)c3s2)CC1 | 4.21%
57 | COC(=O)c1ccc(-c2nc3ccc(C)cc3o2)cc1 | -2.58%
58 | CN(C)/C=C/C(=O)c1cnc2n(c1=O)CCS2 | 3.09%
